{
  "source": "paper PMC11995724",
  "about": "“Antibiotic target discovery by integrated phenotypic and activity-based profiling of electrophilic fragments” (Cell chemical biology, 2025)",
  "note": "Out of some 3,200 compounds screened, about 75 (2%) showed an effect of 50% or more. Some of the results follow.",
  "data": [
    {"tested_on": "T1, S. aureus MSSA476", "T1 construct": "MSSA476", "design": "species or system S. aureus MSSA476 (TSB) or V. cholerae SAD30 (LB); 384-well bacterial growth screen at 25 uM, OD600 relative to DMSO control", "conditions": "relative growth, OD600, TSB; 25 µM; inhibitor", "units": {"% of control remaining": "%"}, "values": [
      {"smiles": "Cc1ccc(C=C(C#N)C(=O)Nc2ccccc2C)cc1", "note": "[8-G16, 2-cyano-N-(2-methylphenyl)-3-(4-methylphenyl)prop-2-enamide]", "% of control remaining": 109.212},
      {"smiles": "C=CC(=O)N1CCC(C(=O)N2Cc3ccc([N+](=O)[O-])cc3C2)CC1", "note": "[2-F04, 1-[4-(5-nitro-2,3-dihydro-1H-isoindole-2-carbonyl)piperidin-1-yl]prop-2-en-1-one]", "% of control remaining": 89.121},
      {"smiles": "Cc1ccc(C2=NN(C(=O)CCl)C(c3cccs3)C2)cc1", "note": "(stereo not drawn) [4-O22, 2-chloro-1-[3-(4-methylphenyl)-5-(thiophen-2-yl)-4,5-dihydro-1H-pyrazol-1-yl]ethan-1-one]", "% of control remaining": 88.0419},
      {"smiles": "O=C(CCl)NCCc1c(F)cccc1F", "note": "[5-F20, 2-chloro-N-[2-(2,6-difluorophenyl)ethyl]acetamide]", "% of control remaining": 114.026},
      {"smiles": "COC(=O)[C@H]1[C@@H](C(=O)CCl)C1(C)C", "note": "(racemic) [10-A11, rac-methyl (1R,3S)-3-(2-chloroacetyl)-2,2-dimethylcyclopropane-1-carboxylate]", "% of control remaining": 136.875},
      {"smiles": "C=CC(=O)NCc1ccc(C(=O)N2CCC(c3nnc(C)o3)CC2)cc1", "note": "[2-M18, N-({4-[4-(5-methyl-1,3,4-oxadiazol-2-yl)piperidine-1-carbonyl]phenyl}methyl)prop-2-enamide]", "% of control remaining": 99.913},
      {"smiles": "CC(Cl)C(=O)N1CC(Oc2ccc(C#N)cc2)C1", "note": "(stereo not drawn) [6-J15, 4-{[1-(2-chloropropanoyl)azetidin-3-yl]oxy}benzonitrile]", "% of control remaining": 90.4878},
      {"smiles": "Cc1cccc(C)c1NC(=O)CN(C)C(=O)CCl", "note": "[5-A13, 2-chloro-N-{[(2,6-dimethylphenyl)carbamoyl]methyl}-N-methylacetamide]", "% of control remaining": 104.189},
      {"smiles": "Cc1ccc(C)c(CN(CCO)C(=O)CCl)c1", "note": "[5-K20, 2-chloro-N-[(2,5-dimethylphenyl)methyl]-N-(2-hydroxyethyl)acetamide]", "% of control remaining": 91.439},
      {"smiles": "N#CC(=Cc1ccsc1)C(=O)NCc1ccc(Cl)cc1", "note": "[8-I15, N-[(4-chlorophenyl)methyl]-2-cyano-3-(thiophen-3-yl)prop-2-enamide]", "% of control remaining": 119.834},
      {"smiles": "N#CC(=Cc1cccc2ccccc12)C(=O)Nc1ccccc1Cl", "note": "[8-K11, N-(2-chlorophenyl)-2-cyano-3-(naphthalen-1-yl)prop-2-enamide]", "% of control remaining": 96.5975},
      {"smiles": "Cc1cc(NC(=O)CCl)n(-c2ccccc2)n1", "note": "[4-G05, 2-chloro-N-(3-methyl-1-phenyl-1H-pyrazol-5-yl)acetamide]", "% of control remaining": 95.6646}
    ]}
  ]
}
